Experimental data published in PubChem BioAssay AID493208 (National Center for Advancing Translational Sciences (NCATS), 2011).
Out of some 44,000 compounds screened, about 340 (0.77%) were called active. Another 5% or so got no clear call; they are omitted. Calls follow the shape of the dose curve; as a rule, active = well fitted inhibition curve with a large enough effect; inconclusive = small, poorly fitted or top-dose-only effect; inactive = flat fitted curve, though single readings scatter. The list shows a part of the results.

Experiment: Acumen qHTS Assay for Inhibitors of the mTORC1 Signaling Pathway in MEF (Tsc2-/-, p53-/-) Cells: Sytravon;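 also: plate controls were DMSO for no effect and rapamycin for full effect; nearly all actives have a fitted effect of over 50% in size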
Details: phospho-rpS6 immunofluorescence/PI, 24 h; series mostly up to 38.3 µM; activity change, negative = inhibition: at the top concentration
Procedure, shortened: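 Read-out: phospho-S6 Alexa-488 intensity over PI intensity per well, scored as % active cells using thresholds from rapamycin (7.5 nM) and DMSO controls. Tsc2-/-, p53-/- MEFs exposed to compound for 24 h; PI cell count recorded as viability.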

Activity change, negative = inhibition, inactive:
COc1cc(OC)c(NC(=O)Cc2ccc(-n3c(C)nc4cccnc43)cc2)cc1Cl -10.5%, O=C(Nc1ccc(F)cc1)[C@@H](c1ccccc1)N1Cc2ccccc2C1=O -5.31%, COc1ccc(-c2noc(N3CCC(C(=O)N(C)c4cc(Cl)ccc4OC)CC3)n2)cc1 -4.2%, COc1ccc(CCNC(=O)CCc2cn(Cc3ccc(C)cc3)c3ccccc23)c(OC)c1OC -17.4%, CCOc1cc2[nH]c(=O)n(CCCCC(=O)N3CCN(c4ccccc4)CC3)c(=O)c2cc1OCC -1.88%, CCC(C)NC(=O)c1[nH]c2cc(C)ccc2c1Sc1ccc(Cl)cc1 (stereo not given) 1.37%, Cc1cccc(C)c1OCC(=O)Nc1c(C(=O)c2ccc(Br)cc2)oc2ccccc12 -2.2%, COc1ccc2oc(=O)c(-c3cn4c(n3)sc3cc(F)ccc34)cc2c1 -4.72%, COc1ccc2c(CNCCc3cccs3)c(C(=O)O)n(Cc3ccccc3C)c2c1 -3.18%, O=C(CN1C(=O)COc2ccc(S(=O)(=O)N3CCCCCC3)cc21)N1CCN(c2cccc(C(F)(F)F)c2)CC1 -2.4%, Cc1cccc(N2CCN(C(=O)C3CCN(S(=O)(=O)c4c(C)noc4C)CC3)CC2)c1C -5.42%, CCCOc1ccc(-c2nc(N3CCC(C)CC3)c3ccccc3n2)cc1 1.12%, CCCn1c2ccccc2c2cnn(CC(=O)N(Cc3ccccc3)C(C)C)c(=O)c21 -5.44%, CCCCOc1ccc(S(=O)(=O)NCc2csc(-c3ccc(OC)cc3)n2)cc1 -0.103%, COc1ccc(CC(=O)NCC(c2cccs2)S(=O)(=O)c2ccc(Cl)cc2)cc1 (stereo not given) -4.84%, CCC(C(=O)Nc1cc(OC)ccc1OC)n1c(C)c2cnn(-c3ccccc3)c(=O)c2c1C (stereo not given) -20%, Cc1c(C(=O)N2CCCC2)oc2c1-c1nn(CC(=O)NC(C)c3ccccc3)cc1CC2 (stereo not given) -16.9%, Cc1ccc(S(=O)(=O)NCCc2nnc3ccc(SCc4ccc(F)cc4)nn23)cc1 -2.24%, Cc1cc(F)ccc1NC(=O)c1ccc2nc(Cc3ccccc3)oc2c1 -4.23%, COc1ccc(-n2ccn(CC(=O)NCc3ccc(C)cc3)c(=O)c2=O)cc1OC 5.29%, COc1ccccc1Cn1cc(C(=O)c2ccc(F)cc2)c(=O)c2cc3c(cc21)OCO3 -7.86%, Cc1ccc(Nc2ncc(C(=O)N3CCN(c4cccc(Cl)c4)CC3)c3ccccc23)cc1Cl 0.326%, Cc1ccc2oc(C(=O)Nc3cccc(-c4nc5ccccc5s4)c3)c(C)c2c1 -0.427%, Cc1ccc(C)c(N2CCN(C(=O)c3cc(S(=O)(=O)N4CCC(C)CC4)cn3C)CC2)c1 4.12%, COc1ccccc1C(=O)c1cn(CC(=O)Nc2ccccc2F)c2nc(C)ccc2c1=O 9.37%, COc1cc(NC(=O)CN2CCCN(S(=O)(=O)c3ccc(F)cc3)CC2)cc(OC)c1 -0.448%, C=CCc1cccc2cc(-c3nc4ccc(C(=O)O)cc4[nH]3)c(=O)oc12 -3.81%, CCOC(=O)c1cc(S(=O)(=O)Nc2c(C)cc(C)cc2C)[nH]n1 -4.99%, Cc1ccc2nc(-c3ccc(NC(=O)COc4ccccc4C(C)(C)C)cc3)sc2c1 2.73%, CCOC(=O)N1CCN(c2ncc3c(n2)CC(c2ccc(Cl)cc2)CC3=O)CC1 (stereo not given) 5.08%, CC(=O)NC(C)c1nc2ccccc2n1Cc1ccccc1Cl (stereo not given) -1.86%, Cc1ccc(C)c(NC(=O)C2CCCN2S(=O)(=O)c2ccc3c(c2)n(C)c(=O)c(=O)n3C)c1 (stereo not given) -11%, COc1ccc(C2C(C(=O)Nc3cccnc3)=C(C)Nc3nc(SCc4ccccc4)nn32)cc1 (stereo not given) -6.2%, CCOC(=O)CCCCN(Cc1ccccc1F)S(=O)(=O)c1ccc(F)c(C(=O)Nc2cc(Cl)cc(Cl)c2)c1 -8.85%, COc1cc(-c2noc(-c3ccc(NC4CCCC4)c([N+](=O)[O-])c3)n2)cc(OC)c1OC -0.128%, COc1ccc(-c2noc(-c3cc(-c4ccc(F)cc4)n[nH]3)n2)cc1 1.36%, O=C(NCc1ccc(F)cc1)c1nnc(Cc2cccc(F)c2)o1 -25.3%, CCOc1ccc(NC(=O)Nc2cc3c(cc2N2CCCCC2)n(C)c(=O)n3C)cc1 -18.7%, COc1ccc(C2=NC(C)(C)N(CC(=O)Nc3cc(OC)cc(OC)c3)C2=O)cc1 -10.5%, CN(c1ccc(F)cc1)S(=O)(=O)N1CCCC(C(=O)NCCc2ccccc2)C1 (stereo not given) -6.9%, Cc1ccc(-c2cc3nccc(-c4cc([N+](=O)[O-])ccc4O)n3n2)cc1 -10.1%, CCOc1ccc(S(=O)(=O)NCc2nc3cccnc3n2Cc2ccccc2OC)cc1 0.0474%, CCCOc1ccc(-c2nc3ccc(Br)cc3c(=O)o2)cc1 -15.4%, CCCCNC(=O)CSc1nc2n[nH]c(C)c2c(=N)n1-c1cccc(C)c1 1%, Cc1nc2ccc(S(=O)(=O)NC(CC(C)C)C(=O)NCc3ccc(Cl)cc3)cc2s1 (stereo not given) -0.889%, CC1=C(C(=O)N2CCN(c3ccc(Cl)cc3)CC2)C2(CCC(C)CC2)OC1=O (stereo not given) 1.73%, O=C(Cn1c(=O)n(Cc2ccccc2)c(=O)c2sc3ccccc3c21)Nc1ccc(F)cc1 -11.1%, CCCCN(CC)CCCNC(=O)c1cc2c(=O)oc3ccc(C)cc3c2s1 -2%, COc1ccc(-c2nc3sc(CCNC(=O)C(=O)Nc4ccc(C)c(C)c4)c(C)n3n2)cc1 0.966%, CCOC(=O)c1cc(-c2ccccc2)n(CC(=O)NCc2ccccc2)c1C -0.79%, Cc1ccc(C)c(Cn2c(=O)n(CCCC(=O)NCCc3ccc(Cl)cc3)c(=O)c3ccccc32)c1 -18.8%, O=C(COc1ccc(Cl)cc1)NCC(c1cccs1)S(=O)(=O)c1ccc(F)cc1 (stereo not given) 0.0758%, CC(C)c1ccc(NC(=O)c2cnc3sc(N4CCCC4)nn3c2=O)cc1 -15%, CCOC(=O)c1ccc(NC(=O)CC2C(=O)N(c3cccc(C)c3)C(=O)N2CCOC)cc1 (stereo not given) -0.14%, CCOc1ccc(-c2nonc2NC(=O)c2ccco2)cc1OCC 7.57%, CCOc1ccccc1CNC(=O)c1cc2c(=O)n(Cc3ccco3)ccc2nc1C -6.2%, COc1ccc(OC)c(-c2csc(-c3c(N)c(C(=O)c4ccc(Cl)cc4)n4ccccc34)n2)c1 -2.12%, CCOc1cc(CNC(=O)NC2COc3ccccc3C2)cc(OCC)c1OCC (stereo not given) 0%, Cc1ccc(OCC(=O)Nc2nnc(SCc3cc(=O)n4cccc(C)c4n3)s2)cc1 5.72%, CCc1ccccc1Nc1ncnc2c1cnn2-c1ccc(C)cc1C 0.936%, COc1ccc(C(=O)Nc2nnc(S(=O)(=O)N3CCN(c4ccc(F)cc4)CC3)s2)cc1 7.14%, COc1ccc(C(=O)Nc2nnc(S(=O)(=O)N(C)c3ccc(C)cc3)s2)cc1 11.9%, Cc1ccc(NC(=O)CSc2nc3c(sc4ccccc43)c(=O)n2CCCC(=O)NC2CCCC2)cc1C -0.43%, CC(C)COc1ccc(C(=O)Nc2nnc(S(=O)(=O)N(C)Cc3ccco3)s2)cc1 2.07%, COc1cccc(CNC(=O)c2cc3c(=O)n(Cc4cccnc4)ccc3nc2C)c1 -1.19%, CCc1cccc(NC(c2ccccc2)c2nnc(-c3ccccc3F)o2)c1 (stereo not given) -3.42%, CCOC(=O)c1c(C)[nH]c(C)c1S(=O)(=O)N1CCCC(C(=O)NCc2ccccc2Cl)C1 (stereo not given) 3.18%, COc1ccccc1CNC(=O)CN(c1ccccc1OC)S(C)(=O)=O 1.33%, CCC(C)NC(=O)Cn1c(=O)n(-c2ccc(OC)c(OC)c2)c(=O)c2ccccc21 (stereo not given) -3.43%, Cc1ccc2oc(-c3cc(NC(=O)CC(C)C)ccc3Cl)nc2c1 -4.54%, CCCc1cc(=O)oc2c(C)c3c(cc12)CN(CCc1ccc(Cl)cc1)CO3 2.19%, Cc1ccc2c(c1)Cc1c(nc(-c3ccc(F)cc3)nc1SCC(=O)N1CCCCC1)O2 2.62%, Cc1ccc(Nc2c(-c3cccnc3)nc3ccc(Cl)cn23)cc1 -4.42%, CCOC(=O)C1CCN(C(=O)c2c(C)nn(-c3ccc(F)cc3)c2-n2cccc2)CC1 -0.619%, COc1ccc2cc(CCNS(=O)(=O)c3ccc(C)cc3)c(=O)[nH]c2c1 -2.08%, Cc1cccc(OCC(=O)Nc2ccc3c(c2)nc(CN2CCCCC2)n3C)c1 -12.4%, CCCc1nnc(NC(=O)Cc2coc3c(C)c(C)ccc23)s1 -6.84%, Cc1ccc(Cl)cc1N1CCN(S(=O)(=O)c2ccc3c(c2)C(C(C)C)C(=O)N3)CC1 (stereo not given) -6.31%, Cc1ccc(-n2ncc3c(N4CCN(Cc5ccccc5)CC4)ncnc32)cc1Cl 8.93%, CCc1cc(=O)[nH]c(SCc2nc(-c3cccc(Cl)c3)no2)n1 -1.95%, CC(C)c1ccc(NC(=O)C2CCCN2S(=O)(=O)c2ccc3nc(-c4ccccc4)[nH]c3c2)cc1 (stereo not given) 0%, O=C(COCc1cc(-c2cccs2)on1)NCc1ccc(F)cc1 4.87%, O=C(Nc1ccc(Cl)cc1)c1ccc(-n2cnnc2)cc1 -0.517%, CCOCCCn1c(SCC(=O)Nc2ccc(CC)cc2)nc2ccccc2c1=O -1.61%, COc1ccc(C(=O)N(Cc2sccc2C)C2CCS(=O)(=O)C2)cc1 (stereo not given) 5.36%, CCc1ccc(C2C(C(=O)Nc3ccccc3OC)=C(C)Nc3nc(SCc4ccccc4)nn32)cc1 (stereo not given) 5%, CCOc1ccc(CNC(=O)CN2N=C(c3ccccc3)CCC2=O)cc1OC 5.22%, Cc1ccc(-n2ncc(C(=O)NCCN3CCN(C)CC3)c2C2CCN(C(=O)OC(C)(C)C)CC2)cc1 5.53%, Cc1nc(C)c(-c2ccc(SCC(=O)Nc3cccc(C)c3C)nn2)s1 -2.47%, Cc1ccc(CNC(=O)CSc2nc3ccsc3c(=O)n2-c2ccc(Br)cc2)cc1 -4.58%, Cn1c(C(=O)NCCc2ccccc2)cc2sc(Cl)cc21 0.107%, Cc1ccccc1C(=O)NNc1ncnc2c1cnn2-c1cccc(Cl)c1 3.79%, CC(=O)c1ccc(NC(=O)CC2Nc3cc(C)c(C)cc3NC2=O)cc1 (stereo not given) -19.8%, CCCc1ccc(NC(=O)C2CCCN(c3cnccn3)C2)cc1 (stereo not given) 1.78%, CCOc1cc(CNC(=O)Cn2ncn3c(cc4cc(F)ccc43)c2=O)cc(OCC)c1OCC -10.6%
